# Screen size: about 290,000 compounds; about 1,100 (0.38%) were called active. Inconclusive results, whose numbers are uncertain, are shown with a selection of clear calls. Calls come from the whole dose curve; as a rule, active = well fitted inhibition curve with a large enough effect; inconclusive = small, poorly fitted or top-dose-only effect, or another doubt; inactive = no such curve, though single readings can be large or run the other way. Where the call is inconclusive, the potency comes from a doubtful curve fit.
# Target: Pyruvate kinase (Leishmania mexicana) (UniProt Q27686)
# Sequence of UniProt Q27686 (Q27686 whole entry, looked up): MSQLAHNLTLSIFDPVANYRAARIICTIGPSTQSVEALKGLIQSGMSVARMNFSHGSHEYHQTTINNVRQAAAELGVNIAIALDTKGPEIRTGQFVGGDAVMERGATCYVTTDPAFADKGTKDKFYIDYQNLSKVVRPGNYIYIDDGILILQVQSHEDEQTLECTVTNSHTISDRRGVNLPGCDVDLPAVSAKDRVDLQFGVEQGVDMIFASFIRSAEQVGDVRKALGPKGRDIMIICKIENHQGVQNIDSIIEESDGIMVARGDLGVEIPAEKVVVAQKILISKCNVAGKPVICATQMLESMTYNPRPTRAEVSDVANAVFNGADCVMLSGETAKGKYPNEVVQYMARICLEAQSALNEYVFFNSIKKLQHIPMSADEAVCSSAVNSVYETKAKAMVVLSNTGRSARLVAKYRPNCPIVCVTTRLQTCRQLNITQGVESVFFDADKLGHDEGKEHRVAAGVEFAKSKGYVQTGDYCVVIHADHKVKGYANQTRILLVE
# Assay: qHTS Assay for Inhibitors of Leishmania Mexicana Pyruvate Kinase (LmPK)
# Conditions: purified LmPK, Kinase-Glo ATP luminescence, 1 h; activity change, negative = inhibition: at 57.5 µM (top of the series) unless noted
# Procedure, shortened: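 Kinase-Glo luminescence read after 1 h RT reaction of 0.1 nM LmPK with 0.5 mM PEP and 0.1 mM ADP. Activity scaled between uninhibited and enzyme-free controls.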
# % is set by controls: 0 for no effect and ±100 for the full control effect; potency is the fitted concentration of half-maximal effect; tags give direction and shape of the fitted curve.
Structure (SMILES),"activity change, negative = inhibition",Potency
CC(=O)C1=C(C)OC(N)=C(C#N)C1c1cccc2ccccc12 (stereo not given),inactive: 0.934%,–
Cc1ccc(-c2nc3ccccc3[nH]2)cc1N,–,active: 15.8 µM
S=c1[nH]nc2nnc3ccccc3n12,–,"inconclusive: 31.6 µM [falling, single point]"
O=C(Nc1ccc2c(c1)OCO2)Oc1ccccc1,–,"inconclusive: 22.4 µM [falling, partial curve]"
CCN1C(=O)/C(=C\C=C2/C=CC=CN2CC)SC1=S,–,"inconclusive: 12.6 µM [falling, partial curve]"
CCOC(=O)CN1CC23C=CC(O2)C(C(=O)Nc2cc(OC)ccc2OC)C3C1=O (stereo not given),inactive: -1.78%,–
Cc1ccc(C(=O)Nc2nc(C)c(C(=O)N(C)C)s2)o1,–,"inconclusive: 22.4 µM [falling, single point]"
CC(=O)NS(=O)(=O)c1ccc(Nc2ccc([N+](=O)[O-])c3nonc23)cc1,–,"inconclusive: 22.4 µM [falling, single point]"
c1ccc(-c2nc3ccccc3[nH]2)cc1,–,"inconclusive: 12.6 µM [falling, partial curve]"
C/C(=N\OCC(=O)NC12CC3CC(CC(C3)C1)C2)c1cc2ccccc2o1,inactive: 2.8%,–
O=c1oc(-c2ccco2)nc2sc3c(c12)CCCC3,–,"inconclusive: 28.2 µM [falling, single point]"
O=c1c2ccccc2cnn1Cc1n[nH]c(=S)n1-c1ccccc1F,–,"inconclusive: 28.2 µM [falling, single point]"
Cc1ccc(C(=O)Nc2cnc3ccccc3c2)cc1,–,"inconclusive: 3.16 µM [falling, full curve]"
CS/C(N)=N/N=C/c1ccc2c(c1)OCO2,–,"inconclusive: 25.1 µM [falling, single point]"
COc1ccc(NC(=O)c2ccccn2)cc1,–,active: 11.2 µM
O=Cc1ccc(OCc2cccc(C(F)(F)F)c2)cc1O,–,"inconclusive: 20 µM [falling, partial curve]"
Cc1cccc(C(=O)O/N=C(\N)c2ccccn2)c1,–,"inconclusive: 25.1 µM [falling, partial curve]"
CCCCCC(O)CCc1n[nH]c(=S)n1-c1ccccc1 (stereo not given),–,"inconclusive: 14.1 µM [falling, partial curve]"
COc1ccc(F)cc1C(=O)C1CCCN(C(=O)c2ccccc2N(C)C)C1 (stereo not given),inactive: -0.147%,–
Cn1c(-c2sccc2OCc2ccc(Cl)cc2Cl)n[nH]c1=S,–,"inconclusive: 20 µM [falling, partial curve]"

Structure (SMILES),"activity change, negative = inhibition",Potency
Cc1ccc(-n2[nH]c(C)c(C=Nc3ccc(S(=O)(=O)Nc4nccs4)cc3)c2=O)cc1C,–,"inconclusive: 35.5 µM [falling, single point]"
COc1ccc(-c2cc(C(=O)O)c(C)o2)cc1OC,–,"inconclusive: 12.6 µM [falling, partial curve]"
O=C(N/N=C/C(Cl)=C/c1ccccc1)c1ccccn1,–,"inconclusive: 28.2 µM [falling, single point]"
Cc1cccc2[nH]c(-c3ccc(NC(=O)c4ccco4)cc3)nc12,–,"inconclusive: 15.8 µM [falling, partial curve]"
Cc1cc2nc(N)sc2cc1C,–,"inconclusive: 22.4 µM [falling, single point]"
Nc1ccc(N2CCOCC2)cc1C(F)(F)F,inactive: -1.09%,–
Cc1cccc(/C(N)=N/OC(=O)c2ccccc2Cl)c1,–,active: 11.2 µM
CCCN1/C(=C2/SC(=S)N(CC)C2=O)C=Cc2ccccc21,–,"inconclusive: 25.1 µM [falling, single point]"
O=C1C(Cl)=C(N2CCN(Cc3ccccc3)CC2)C(=O)N1Cc1ccccc1,inactive: -0.707%,–
N/C(=N\N=C\c1ccc(O)cc1)c1nonc1N,–,"inconclusive: 20 µM [falling, partial curve]"
Fc1ccc(-c2nc3ccccc3[nH]2)cc1,–,"inconclusive: 25.1 µM [falling, partial curve]"
CC(=O)Oc1ccccc1C(=O)Nc1ncc([N+](=O)[O-])s1,–,active: 12.6 µM
CN1CCC(N(C)c2ccc(C(N)=O)cc2[N+](=O)[O-])CC1,inactive: 0.195%,–
O=C1C2C3C=CC(CO)(O3)C2C(=O)N1c1ccc(-c2ccccc2)cc1 (stereo not given),–,"inconclusive: 31.6 µM [falling, single point]"
O=C(c1ccc2c3n(nc2c1)-c1ccc(Cl)cc1CO3)N1CCOCC1,–,active: 15.8 µM
CN1CC2(Cc3c1ccc1ccccc31)C(=O)OC(C)(C)OC2=O,–,"inconclusive: 20 µM [falling, partial curve]"
Cc1ccc(C(=O)c2ccccc2C(=O)O)c(O)c1,inactive: 1.4%,–
Cn1cnc2cc(NCc3ccc(Cl)cc3)ccc21,inactive: -0.205%,–
O=C(NC(=S)N1CCCc2ccccc21)c1ccccc1,inactive: 4.14%,–
CCN(CC)C(=O)c1ccc2c(c1)C1C(Cl)C(Sc3ccccc3[N+](=O)[O-])CC1C(C(=O)O)N2 (stereo not given),–,"inconclusive: 39.8 µM [falling, single point]"

# Reference: PubChem BioAssay AID1721 (National Center for Advancing Translational Sciences (NCATS), 2009)
